“And” between values parts separate entries of the source, which are not always exact repeats. Equal entries are not always repeated.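 Results reflect a 48-hour exposure of cells in 96-well plates to compound at five concentrations. GI50 is the concentration that inhibits growth by half. TGI: total growth inhibition.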
test system: NCI-H322M lung; experiment: NCI tumour cell line growth inhibition, 48 h

| Structure (SMILES) | TGI | GI50 |
| --- | --- | --- |
| COC(=O)c1c(O)ccc2c1c1c(n2C)C(=O)c2ccccc2C1=O | > 100 µM |  |
| C=C[C@H]1CN2CC[C@H]1C[C@@H]2[C@@H](O)c1ccnc2ccccc12 | > 100 µM |  |
| O=C(c1cccs1)N(C(=O)N1CCC(c2ccccc2)CC1)c1ccccc1 | > 100 µM |  |
| COC(=O)c1ccc(OCc2ccc3oc(=O)c(-c4ccccc4)nc3c2)cc1 | > 100 µM |  |
| CC/C=C\C[C@H](O)C/C=C1/C(=O)C=C[C@@H]1C/C=C\CCCC(N)=O | 11.4 µM | 2.61 µM |
| NC(N)=N/N=C/c1c(-c2cc(Cl)sc2Cl)nc2n1CCS2 | 15.1 µM | 8.07 µM |
| O=C1NC(N2CCOCC2)=N/C1=C\c1ccccc1O | > 100 µM |  |
| O=S(=O)(O)c1ccc2cc(N=Nc3cc(S(=O)(=O)O)c4cccnc4c3O)ccc2c1 | > 100 µM |  |
| COC(=O)C12C3C4C1C1C2C3C41I (stereo not given) | > 100 µM |  |
| NC(N)=NNC(=O)C(=O)O | > 100 µM |  |
| Nc1nc(N)c2ncn(CC(CO)CC(c3ccccc3)P(=O)(O)O)c2n1 (stereo not given) | > 100 µM |  |
| O=C(c1ccco1)N(C(=S)N1CCN(c2ccccc2)CC1)c1ccccc1 | > 100 µM |  |
| O=C(Nc1ccc(Br)cc1)c1cc(Br)cc(Br)c1O | 8.75 µM | 3.2 µM |
| CCN1C/C(=C\c2ccc(Cl)cc2)C2=NN(c3ccccc3)C(c3ccc(Cl)cc3)C2C1 (stereo not given) | > 100 µM |  |
| CC1(C)N=C(N)N=C(N)N1c1cccc(CSc2ccccc2)c1 | > 100 µM |  |
| COC(=O)/C(=N/NC(C)(C)C)C(C(=O)C=C(C)C)C(=O)C(=O)Nc1ccc(Cl)cc1C (stereo not given) | > 100 µM |  |
| NCCCCCCNc1cc(-c2cccc(OC(F)(F)F)c2)nc2ccc(N3CCCC3)cc12 | 3.01 µM | 1.64 µM |
| c1c[nH]c(Cc2ncc(Cc3cnc[nH]3)[nH]2)n1 | > 100 µM |  |
| CCOC(=O)c1c2ccc(/C=C/C(=O)OC)ccc-2c(C(=O)OCC)c1N | 8.53 µM |  |
| CCOC(OC1=C(C#N)CCC1)C(CC)[Se]c1ccccc1 (stereo not given) | > 100 µM |  |
| CC(O)C(NC(=O)C(CS)NC(=O)C(CO)NC(=O)C(CCCCN)NC(=O)C(Cc1c[nH]c2ccccc12)NC(=O)C(Cc1ccc(O)cc1)NC(=O)C(CS)NC(=O)C(N)Cc1ccccc1)C(N)=O (stereo not given) | > 25 µM and 51.2 µM |  |
| CN(C)Cc1cc(C(=O)O)cc(CN(C)C)c1O | > 100 µM |  |
| CN(C)c1ccc(/C=N/NC2=N/C(=C\c3ccco3)C(=O)N2)cc1 | > 100 µM |  |
| O=C(O)c1[nH]c(C(=O)O)c(CC(F)(F)C(F)(F)C(F)(F)F)c1CC(F)(F)C(F)(F)C(F)(F)F | > 100 µM |  |
| O=C(O)c1nnsc1COCc1ccccc1 | > 100 µM |  |
| N#C/C(=C(\O)C(=O)O)c1ccc(-c2cccc3ccccc23)cc1 | > 100 µM |  |

| Structure (SMILES) | TGI | GI50 |
| --- | --- | --- |
| CN(C)c1ccc(/C=C2\N=C(c3ccccc3)N(c3nc4c(Cl)cc(Cl)cc4s3)C2=O)cc1 | > 100 µM |  |
| C/C(=N/O)c1cccc(Nc2nc3ccccc3c3[nH]c4ccccc4c23)c1 | 7.38 µM |  |
| CCOC(=O)/C=C(/C(=O)OCC)n1cc(C)c(=O)n(Cc2cnnn2CCCCOC(C)=O)c1=O | > 100 µM |  |
| C=C1C(=O)O[C@H]2[C@H]1CC/C(COC(=O)c1ccc(C(=O)O)s1)=C\CC[C@@]1(C)O[C@@H]21 | 18.3 µM | 5.72 µM |
| O=S1(=O)c2ccccc2N2CCCc3cc(Cl)cc1c32 | > 100 µM |  |
| CCCCCCCCOCC1S(=O)(=O)OCCOS1(=O)=O | > 100 µM |  |
| Cc1ccc(S(=O)(=O)NCCN2c3nc4ccccc4cc3Sc3cc4ccccc4nc32)cc1 | > 100 µM | > 100 µM |
| CC[C@H]1C=CCC[C@@]2(C[C@@H]3CC[C@@H]4[C@H](C(=O)OCCCCCCCCCCCCCCCC(=O)N(CCCN)C[C@@H](O)CCN)[C@]5(CCC[C@@H](C)O5)NC(=[N+]34)N2)O1 | 2.54 µM |  |
| Cc1c2cc[n+](C)cc2c(C)c2c1[nH]c1ccccc12 | 10.7 µM and 12.4 µM |  |
| CC(C)(C)C([O-])=C1C(=O)c2ccccc2C1=O.CC(C)(C)C([O-])=C1C(=O)c2ccccc2C1=O.CC[O-].CC[O-].[Ti+4] | > 100 µM | 27.1 µM |
| COc1ccc(CN=CN/C(C#N)=C(\N)C#N)cc1OC | > 100 µM |  |
| O=[N+]([O-])C(=C(NCc1ccccc1)NCc1ccccc1)C(Cl)=C(Cl)Cl | > 100 µM |  |
| CC1=Nn2c(nc3sc4c(c3c2=O)CCCC4)SC1 | > 100 µM |  |
| COC1C(=O)CCC2(CO2)C1(O)C1(C)OC1CCC(C)C (stereo not given) | > 100 µM |  |
| Fc1cccc2nc(-c3ccccc3)cc(OCc3ccccc3)c12 | > 100 µM |  |
| CCN(CC)CC(C)Nc1ccc(C)c2sc3ccccc3c(=O)c12 (stereo not given) | 23.2 µM | 9.49 µM |
| CC1(C)CCOC(=O)C(Cl)CC1Cl (stereo not given) | > 100 µM |  |
| O=C1CC(O)c2c(Cl)sc(Cl)c21 (stereo not given) | 34.7 µM |  |
| CC1=CC[C@@H]2C(C)(C)[C@@H](O)CC[C@@]2(C)[C@@H]1COc1ccc2ccc(=O)oc2c1 | 24 µM | 11 µM |
| Nc1cc(CO)cc(Nc2c3ccccc3nc3occc23)c1 | > 100 µM |  |
| Cc1nc2c(Br)cc(Br)cc2c(=O)n1-c1ccccc1N | > 100 µM |  |
| COC(=O)C(Cc1ccccc1)NC(=O)CNC(=O)CSc1nnc(COc2ccc(Cl)cc2)n1-c1ccccc1 (stereo not given) | 32.6 µM |  |
| Cc1cc(O)cc(C)c1/C=C/c1cncc(C(=O)N(C)C)c1 | > 25 µM | > 25 µM |
| COc1ccc(N=C/C=C/Nc2ccc(OC)cc2)cc1 | 26 µM |  |
| O=C(O)C(Cc1ccc(O)c([N+](=O)[O-])c1)N1C(=O)c2ccccc2C1=O (stereo not given) | > 100 µM |  |
| Cc1nc2ccccc2n1CCc1nc2ccccc2s1 | > 100 µM |  |

| Structure (SMILES) | TGI | GI50 |
| --- | --- | --- |
| O=C1CC(c2cccc(Cl)c2)n2cccc21 (stereo not given) | > 100 µM |  |
| CN(C)CN1C(=O)S/C(=C2\C(=O)N(CN(C)C)c3ccccc32)C1=O | > 100 µM |  |
| Cc1cc2occ(C)c(=O)c2c2c1OC(C)(C)S2 | > 100 µM |  |
| COc1nc2c(c(=O)n1C)N[C@@H]1[C@@H](O)[C@H](O)CO[C@@H]1N2 | > 100 µM |  |
| NC1CCC(c2cc3ccccc3s2)(N2CCCCC2)CC1 (stereo not given) | 6.42 µM |  |
| O=C(CSc1nc2ccc(I)cc2c(=O)n1Cc1ccccc1)Nc1ccc(Br)cc1 | > 100 µM |  |
| Cc1ccc(S(=O)(=O)ON/N=C2/C3OC3[C@@H]3CCCC[C@H]23)cc1 (stereo not given in full) | > 100 µM |  |
| CC(=O)Oc1ccc2c(c1)CC[C@@H]1C2[C@@H](O[N+](=O)[O-])C[C@@]2(C)C1CC[C@@H]2O (stereo not given in full) | > 100 µM |  |
| O=C(/C=C/c1ccc([N+](=O)[O-])o1)NNC(=O)c1cc2ccccc2cc1O | > 100 µM | 4.45 µM |
| CO[P@]1(=O)O[C@@H](c2ccccc2)[C@H](O)[C@]1(O)c1ccccc1 | > 100 µM |  |
| CCC(=O)N1C/C(=C/c2ccc(OC)cc2)C(=O)/C(=C/c2ccc(OC)cc2)C1 | 9.37 µM | 2.91 µM |
| O=c1oc2c3ccc4ccccc4c3n(Cc3nc4ccccc4[nH]3)c2c2ccccc12 | > 100 µM |  |
| O=C1c2cccc3cc([N+](=O)[O-])cc(c23)C(=O)N1CCCN1CCN(CCCN2C(=O)c3cccc4cc([N+](=O)[O-])cc(c34)C2=O)CC1 | 23.9 µM |  |
| O=C1OCC2=Nc3cccc4cccc(c34)N12 | > 100 µM |  |
| c1cc2c(cnc3cscc32)s1 | > 100 µM |  |
| CC(SC1=CC(=O)c2c(O)ccc(O)c2C1=O)C(=O)O (stereo not given) | > 100 µM |  |
| NC(=O)c1ccccc1NC(=O)C(=O)C(c1cnc2ccc([N+](=O)[O-])cc2n1)[N+](=O)[O-] (stereo not given) | > 100 µM |  |
| NS(=O)(=O)c1ccc(/C=C/c2cccc(O)c2)cc1 | > 100 µM |  |
| CN(C)CCNC(=O)c1cc([N+](=O)[O-])cc2ccc(-c3ccccc3)nc12 | 20.5 µM |  |
| COc1cccc(C2c3cc4c(cc3OC(N3CCOCC3)C2C)OCO4)c1O (stereo not given) | > 100 µM |  |
| Cc1c2ncccc2c(C)c2c1[nH]c1ccccc12 | 21 µM |  |
| CCN(CC)C(=O)CCCCCCCCC1CO1 (stereo not given) | > 100 µM |  |
| c1ccc(N=NNNc2ccc(-c3nc4ccccc4[nH]3)cc2)cc1 | > 100 µM |  |
| OCC1OC(N2C=C(c3nc4ccccc4s3)C3C=CC=CC32)C(O)C1O (stereo not given) | 28.8 µM | 10.8 µM |
| CN(C)CCNc1cccc2sc3ccc(O)cc3c(=O)c12 | 16.7 µM | 3.96 µM |
| c1cncc(C2c3[nH]c4ccccc4c3CCN2CCN2CCCCC2)c1 (stereo not given) | > 100 µM |  |

| Structure (SMILES) | TGI | GI50 |
| --- | --- | --- |
| CN(C)Cc1cc(C(=O)/C=C/c2ccc(/C=C/C(=O)c3cc(CN(C)C)c(O)c(CN(C)C)c3)cc2)cc(CN(C)C)c1O | > 100 µM |  |
| CCc1ccc(C2=C(O)C(=O)C(c3ccc(CC)cc3)=C(O)C2=O)cc1 | 9.61 µM | 2.42 µM |
| C=C1C(O)C2C(=C(CC(C)C)C13CC3)C(=O)C(C)(C)C2OC (stereo not given) | > 100 µM | > 100 µM |
| Cc1ccc2c3c1O[C@H]1c4nc5ccccc5cc4C[C@@]4(O)[C@@H](C2)N(CC2CC2)CC[C@]314 | 32.5 µM |  |
| c1cc(-c2sc(-c3ccncc3)c(-c3ccncc3)c2-c2ccncc2)ccn1 | 39.6 µM |  |
| COC(=O)c1ccc2c(c1)c1c(C)c3cnccc3c(C)c1n2C | 4.12 µM | 0.267 µM |
| COc1cc(C2c3cc4c(cc3OC(N3CCOCC3)C2C)OCO4)cc(OC)c1O (stereo not given) | > 79.9 µM |  |
| OC1CCC(C2C3CCCCC3C3CCCCC3C2C2CCC(O)CC2)CC1 (stereo not given) | 19.7 µM |  |
| CCOC(=O)/C=C(/CN1C(=O)c2ccccc2C1=O)c1ccccc1 | > 100 µM |  |
| COc1cc2[nH]c(-c3ccccc3)cc(=O)c2cc1OC | > 100 µM |  |
| Nc1ccc2c(c1)[O][Sn]([c]1ccccc1)([c]1ccccc1)[O]C2=O | 31 µM | 17.2 µM |
| Cn1c2ccccc2n2c3nc4ccccc4nc3c(C#N)c12 | > 100 µM |  |
| [Cl][Sn]([c]1ccccc1)[c]1ccccc1 | 28.5 µM | 15.1 µM |
| CCn1c2c(c3c(C(=O)OC)c(O)ccc31)C(=O)c1ccccc1C2=O | 76.5 µM |  |
| Cn1nnnc1[N-]Cc1ccccc1.[Au+].c1ccc([PH+](c2ccccc2)c2ccccc2)cc1 | 28.6 µM | 15.2 µM |
| c1ccc(COc2ccc3[nH]c4c(ncc5[nH]c6ccccc6c54)c3c2)cc1 | 44 µM |  |
| O=C1CSC2(CCN(CCCN3c4ccccc4Sc4ccc(Cl)cc43)CC2)N1 | 24.9 µM |  |
| O=c1[nH]cnc2c1ncn2[C@H]1CO[C@@H](CO)[C@@H]1O | > 100 µM |  |
| C=C(Br)CN(C#N)CC(=C)Br | > 100 µM |  |
| CCN(CC)CCNc1ccc(N=Nc2ccc(S(N)(=O)=O)cc2)c2ccccc12 | 38.5 µM |  |
| O=C1C=C(c2cc(Br)c(O)c(Br)c2)/C(=C/c2cc(Br)c(O)c(Br)c2)O1 | > 75 µM | 28.2 µM |
| CC(=O)O/C(C)=C\C(=O)O/N=C(\N)c1ccc(C)cc1 | > 100 µM |  |
| c1ccc2c(c1)SC1Sc3ccccc3[S+]21 (stereo not given) | > 100 µM |  |
| Cc1ccc(-n2c(C)nc3c2C(=O)c2ccccc2C3=O)cc1 | > 100 µM |  |
| CCCCS(=N)(=O)CC[C@H](N)C(=O)O (stereo not given in full) | > 10000 µM | > 10000 µM |
